Measurements: patent US20150316556A1, “SSEA4 AND ST3GAL2 AS CHEMOTHERAPEUTIC DRUG RESPONSE BIOMARKERS” (Miltenyi Biotech GmbH, priority 2014, published 2015)

System: purely adherent cell line derived from model HBCx-17
Details: purely adherent HBCx-17 derived cell line; increasing concentrations; n=4

COc1cccc2c1C(=O)c1c(O)c3c(c(O)c1C2=O)C[C@@](O)(C(=O)CO)C[C@@H]3O[C@H]1C[C@H](N)[C@H](O)[C@H](C)O1 [doxorubicin]
fraction of SSEA4 positive cells in the surviving population: significantly higher fraction of SSEA4 positive cells
